In PMC12136788:
Some of the results follow.

T1: UNK ZnF1-3 (human, UniProt Q9C0B0 31-174)
T1 sequence: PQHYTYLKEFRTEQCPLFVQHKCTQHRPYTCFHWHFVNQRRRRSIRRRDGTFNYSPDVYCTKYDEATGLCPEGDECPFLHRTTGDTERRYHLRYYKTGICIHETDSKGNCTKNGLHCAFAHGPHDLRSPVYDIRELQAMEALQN

B1: chr4:123032474:123032475:-_ENSMUSG00000028649_ENSMUST00000154824|mus_mus|FALSE|FALSE (ssRNA)
RNA: GGGAGUUCUACAGUCCGACGAUCUGACCGGAAUGGAGUCAUCCCCUGAGAUGCCCCUUCUGGCAGGAUGAAUUUCUCUCUAAGUUCUAUGUUAGUUCUGCCUCGUGCUCGGCAGGGGUCAUUUUUCACUAGAAACUCGUCCAGCAACAGAGGAUUGAGCAUCA
B2: chr1:46159212:46159213:+_ENSG00000159596_ENST00000372025|hu_mus|hu_hu_hu_mus_True|1_98 (ssRNA)
RNA: GGGAGUUCUACAGUCCGACGAUCUCUGAUCCCUCCCAAGAAAGAUAGGAAACCGGCUCCAUAAGCCAUCUGAGUGAAAGCUAGGACGGGGAUAUAAGACUUUGUUAUUACCAUGAGAAGUGGGGGAGCAGUAAAGGGGAUUAGCAACAGAGGAUUGAGCAUCA
B3: 37430299_37430419_11376_3pUTR_ENSMUSG00000026915_ENSMUST00000028279|mouse|control|control (ssRNA)
RNA: GGGAGUUCUACAGUCCGACGAUCGCAGCUCAUAGCUUCAGCAUAUGCUAUCACAUCCCACAGUACACUUCUUACCUUCUGUUCUUCCAAAGCACCUCACCUGCCCUCAUGUGGCACCUUCACAUCAAAAUGCCCACUUGUCUACAACAGAGGAUUGAGCAUCA
B4: chr4:144460044:144460045:+_ENSG00000153147_ENST00000283131|hu_mus|hu_hu_hu_mus_False|1_18 (ssRNA)
RNA: GGGAGUUCUACAGUCCGACGAUCACGGUCCAUAGCCUGAAGAUCAACUUGCGGAUUCCAAUCUGAGUCAUAUAAAAUGACUACAUCAGCAGUUGCAAGAUUGAUGCCCAGACCACCAGCACGCGUGCUUAGCAUAAAAACAAACAACAGAGGAUUGAGCAUCA
B5: chr17:34054454:34054455:+_ENSMUSG00000051390_ENSMUST00000053429|mus_mus|motif|central (ssRNA)
RNA: GGGAGUUCUACAGUCCGACGAUCAAAUGCAUCCUGGGAGGUAGAGGAGAAAUCAGUCGACUCCCGGGGGCUGAAGUAGUUGCGGCUGCUGGGAGACUGAUUCUCACUGGCCCUGCUGGAGGUAUGGGAACGGACAGAGCCUACCAACAGAGGAUUGAGCAUCA
B6: chr3:135071361:135071362:-_ENSMUSG00000028165_ENSMUST00000029815|mus_hu|FALSE|FALSE (ssRNA)
RNA: GGGAGUUCUACAGUCCGACGAUCUCUCUGUGAAAACACAAGUAAUUCUUGAUGGCAAUAUUUUUCUUAAUUCACCUAACCAAAUGCAGUUUGGAAGGCCAAAACGAGAAAAAAACACUUCAGAUUAUCAAAACCAAAAGAGAUCAACAGAGGAUUGAGCAUCA
B7: chr2:43450610:43450611:-_ENSG00000152518_ENST00000282388|hu_hu|FALSE|FALSE (ssRNA)
RNA: GGGAGUUCUACAGUCCGACGAUCAGUUAAAUAGUUUUCAUAUUGAGUUGUGGUGCAGUGGUGCGAAUCAACUCAAAACAGCUAAAAAUUCAGCAGUUAUUCUCCAACAAUUACAAAGUAAGCUCUGCGCAAGGCUUCCAGAGGCAACAGAGGAUUGAGCAUCA
B8: 50245285_50249986_740_CDS_ENSG00000121274_ENST00000436909|human|control|control (ssRNA)
RNA: GGGAGUUCUACAGUCCGACGAUCACUAGUAGGUAAAUAAAGUCCAGUUUUAAAACUUCCAAAUAUCUGGACGUCAGCGCUGGGCCAGAGCUCCUUAAUUACACUCUCGAUCCUGUUCACCACCUCCAUCCGCAUCUUCUCCUCCAACAGAGGAUUGAGCAUCA
B9: 133221040_133221160_1046_CDS_ENSMUSG00000043257_ENSMUST00000062118|mouse|control|control (ssRNA)
RNA: GGGAGUUCUACAGUCCGACGAUCUGACAAGCACACAGAGGCCAUCAGCUUCACGAGGGGCUUCCAGGGGCUCAGCACCGCCAGAGAGGAACAAAAGCCUCUGCACUGGGAGUGCAGGAGGAAGCCAAGGCUCACCAGCCCAUUCAACAGAGGAUUGAGCAUCA
B10: chr9:108846149:108846150:+_ENSMUSG00000025651_ENSMUST00000026743|mus_mus|FALSE|FALSE (ssRNA)
RNA: GGGAGUUCUACAGUCCGACGAUCGUGCUCUCGAGUGCUGUAGGCAUUAAGAUGAGCCCCAAUACUCUCUACCUCCUUCUCUAAGGCAUUGCCAGGCCGAUUCUUUGUUCCCUUGAAAGCCAGAUGUUCCAAAAAGUAGCCUGCCAACAGAGGAUUGAGCAUCA
B11: 87964793_87964913_1549_CDS_ENSG00000188994_ENST00000369577|human|control|control (ssRNA)
RNA: GGGAGUUCUACAGUCCGACGAUCUUUUAUCUCUCUCUUCUUCUGCUUUUCAUCACCAAUGUCUUUAAGAAGGCCAGAAUUAGCACCAACUCCACCAGAAAGCCCAUUCAUAGAAGUUUCUUUACUCUCUUCUUGGUAGUCUACCAACAGAGGAUUGAGCAUCA
B12: 129698849_129698969_2618_CDS_ENSMUSG00000001052_ENSMUST00000001079|mouse|control|control (ssRNA)
RNA: GGGAGUUCUACAGUCCGACGAUCAUUCGGAUCUUCUCUGGACUGCAGAAGUCCUGCCCCCAAGGAAGGUAACUGUGUCUGAAAUACAGACACGCGGCCGCCCGUGGGAGACAUGAGUUUGAAGGCAGCCUGAAGUGCAGGUCCCAACAGAGGAUUGAGCAUCA
B13: chr7:109309172:109309173:-_ENSMUSG00000063550_ENSMUST00000070165|mus_mus|FALSE|FALSE (ssRNA)
RNA: GGGAGUUCUACAGUCCGACGAUCUGAUUUGGCUGUGCCUGUUGUUUGCAAAGCCUUUGGCCUGACUCUGGUAGCAGGGCGAGGUGUAAGUUUAUAAUGAGUAGGUGUUGUAAGAGCUUUCUGAGCAGCUGGAUUGGUUGGUUUCAACAGAGGAUUGAGCAUCA
B14: chr7:138235809:138235810:+_ENSG00000122779_ENST00000415680|hu_hu|FALSE|FALSE (ssRNA)
RNA: GGGAGUUCUACAGUCCGACGAUCGGAUGCAUCACACCUUGCACGAAGGAGGUGCCGUAACCGGUAUGUAAUCAGUCGUUUGCUAUAAAGUAAUGCUGUACUGCUGCCACUGGAAACUGCCCAUUUAGAAAAAUGCAUGACAUGCAACAGAGGAUUGAGCAUCA
B15: chr5:138643614:138643615:+_ENSG00000015479_ENST00000510056|perfect_dup|FALSE|FALSE (ssRNA)
RNA: GGGAGUUCUACAGUCCGACGAUCGUCAUAAUCAAGCACUGGGUUGAGACUAGGACCACGAUCAUCAAAACUAUCUCUUCUAAAGUGCCUUUUUUCUUCCCAAUCAUCCCUAGGUACUCUGUAUGGUGGCUCCCGUGUAGCAGACAACAGAGGAUUGAGCAUCA
B16: chr6:55002191:55002192:+_ENSMUSG00000029777_ENSMUST00000003572|mus_mus|motif|central (ssRNA)
RNA: GGGAGUUCUACAGUCCGACGAUCGUGGUCUGCUCGGAAGCACUCUCCGUUCUUCACGUCCUUCACCAUGAAGUCAGCAAAUUUGUCGGCGUGGCCAGAGGUCUUUAAAACUGGCUCAGGGGUGAGCAUGGUGCAGUCAAUCUCCAACAGAGGAUUGAGCAUCA
B17: 155539967_155540087_1442_ncRNA_ENSMUSG00000041936_ENSMUST00000154494|mouse|control|control (ssRNA)
RNA: GGGAGUUCUACAGUCCGACGAUCGUCAGGGCAACUUAGAUGUAGCCUGGCUUCUACUUCCAGCCUCCGGGGACAGGCAAACACAUUUUGGGAAGUAAGAUGAUGUCCCAAUUAUUAUCAGUUUUUUGAUAUCACAGUAUUGUCCAACAGAGGAUUGAGCAUCA
B18: chr11:29608385:29608386:+_ENSMUSG00000020458_ENSMUST00000102843|mus_hu|motif|central (ssRNA)
RNA: GGGAGUUCUACAGUCCGACGAUCCCUGGCUAAUUUAGAAAAUGAAUCAGUUUUAGAACUGAUCAAUGUAGGGAACUCAUCGGUAAUUUCAAUUGGAGAUGAAUCUGAAAACGUUUCAGUUUCUCUUAUCUGUGCUUCCUUAGACAACAGAGGAUUGAGCAUCA
B19: 94672737_94676055_4995_CDS_ENSMUSG00000040785_ENSMUST00000117648|mouse|control|control (ssRNA)
RNA: GGGAGUUCUACAGUCCGACGAUCCUUCUCAUCUGUGAGUGCACUGCUGAAUCCAAGGGACUGGUCCGGAUGUGGUUCACAUUCCUUAUCGAAUCCAUCAUUUUUCUGGGCAGGCAUUUCACUGGUAUUGAUAACCUUUUUAAUCAACAGAGGAUUGAGCAUCA
B20: chr5:37680062:37680063:+_ENSMUSG00000029121_ENSMUST00000031004|mus_hu|mus_mus_mus_hu_False|1_28 (ssRNA)
RNA: GGGAGUUCUACAGUCCGACGAUCUUUGGGUGUAGCUGGUACCUCGUACACAGGACCGUCAUACAUGCCCCUGGAAACCCCUUGCAAUCCAAAAACCUUAUUCCUGAUCCUGACACGCUGGUACAGGUGCUCCGGGAAUGGCUUCAACAGAGGAUUGAGCAUCA
B21: chr6:114281168:114281169:-_ENSG00000196591_ENST00000368632|hu_hu|hu_hu_hu_mus_True|78_98 (ssRNA)
RNA: GGGAGUUCUACAGUCCGACGAUCUUCCAUUUUUCGGUAUAAGCCAUAAUUUAGCAGCAAGUUAUGGGUCAUCCGGAUUCUAUGAGGCUUCAUGGGAUGACCCUGGCCAUAAUAAUAAUUGCCAAUAUCACCAUCAUAGUAGUACAACAGAGGAUUGAGCAUCA
B22: chr11:87793471:87793472:-_ENSMUSG00000020483_ENSMUST00000020775|mus_mus|mus_mus_mus_hu_False|1_18 (ssRNA)
RNA: GGGAGUUCUACAGUCCGACGAUCUGGACUUGAAAAUAAAAGAAUAAGCUGGAUCCCCCACCCCCCCACAUUGUCAACCCUACACGAGAGUUUUGAAGGCGACUCAUGAAAAUCAGCCUCAAUUGGCGCAAUGACCACCCACCCCAACAGAGGAUUGAGCAUCA

target: T1, UNK ZnF1-3; test: nsRBNS (natural sequence RNA bind-n-seq); RBNS binding buffer (assumed for nsRBNS): 25 mM Tris pH 7.5, 150 mM KCl, 3 mM MgCl2, 0.01% Triton X-100, 500 ug/ml BSA, 20 U/ml SUPERase-In, 4 C; UNK is unkempt and MSI1 is Musashi-1; names of the RNAs are library labels; protein concentration not given here; high values mean tight binding

Binder	binding signal
B1	0.607 enrichment R
B2	1.6 enrichment R
B3	1.13 enrichment R
B4	1.01 enrichment R
B5	1.27 enrichment R
B6	0.855 enrichment R
B7	1.2 enrichment R
B8	1.04 enrichment R
B9	1.93 enrichment R
B10	0.952 enrichment R
B11	1.1 enrichment R
B12	0.327 enrichment R
B13	0.683 enrichment R
B14	1.52 enrichment R
B15	1.52 enrichment R
B16	0.813 enrichment R
B17	1 enrichment R
B18	1 enrichment R
B19	0.631 enrichment R
B20	0.649 enrichment R
B21	0.615 enrichment R
B22	2.18 enrichment R
